From PubChem BioAssay AID588855 (National Center for Advancing Translational Sciences (NCATS), 2011)
About 5,000 (1.2%) of roughly 410,000 compounds were called active. This list was built around the results that the source calls inconclusive (neither active nor inactive); the mix of calls is not that of the screen. The call rests on the fitted dose curve; in most records, active means well fitted inhibition curve with a large enough effect; inconclusive means small, poorly fitted or top-dose-only effect; inactive means no such curve, though single readings can be large or run the other way. Where the call is inconclusive, the potency comes from a doubtful curve fit.

Test: qHTS for Inhibitors of TGF-b; further: nearly all actives have a fitted effect of over 65% in size
Settings: HepG2 CAGA-GFP TGF-b/SMAD3 reporter, GFP fluorescence, 18 h, TGF-beta stimulated, 500 pg/mL final; series mostly up to 46.1 µM; activity, negative = inhibition: at the top concentration
How it was run: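 Per well, imaged GFP fluorescence of HEPG2 CAGA-GFP cells gives the signal; cells get compound, then TGF-beta (500 pg/mL final), 18 h at 37 degrees C; %Activity versus -TGF-beta and +DMSO controls.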
On the % scale 0 is the no-effect control and ±100 the full control effect; potency means the concentration at half of the fitted maximal effect; tags describe the fitted curve by direction and shape.

SMILES	activity, negative = inhibition	Potency
O=C(Nc1ccc(F)cc1F)c1ccc(-n2cccn2)nc1	inactive: -1.51%	–
Cc1ccccc1Cn1c(CN2CCc3ccccc3C2)nc2c1c(=O)n(C)c(=O)n2C	–	inconclusive: 35.5 µM [inhibitor, single point]
CCN(Cc1ccccc1)c1nc2c(S(=O)(=O)c3ccccc3)nnn2c2ccc(Cl)cc12	inactive: -2.1%	–
O=C(c1cccc(OC2CCN(Cc3ccc(F)cc3Cl)CC2)c1)N1CCCC1	–	inconclusive: 14.1 µM [inhibitor, partial curve, poor fit]
Cc1ccc(CNS(=O)(=O)c2ccc([N+](=O)[O-])cc2)cc1	–	inconclusive: 11.2 µM [inhibitor, partial curve]
COc1ccc(C2CC(c3ccc(F)cc3)=NN2c2ccccc2)cc1OC (stereo not given)	inactive: 0.388%	–
CC(C)c1nc(=S)c2ccccc2[nH]1	inactive: -7.47%	–
Cc1ccccc1C(=O)Nc1cccc(NC(=O)c2ccc(C(C)(C)C)cc2)c1	–	inconclusive: 6.31 µM [inhibitor, partial curve, poor fit]
CCc1ccc(Nc2c([N+](=O)[O-])c(=O)oc3ccccc23)cc1	–	inconclusive: 10 µM [inhibitor, partial curve]
COc1ccccc1CNCC(O)(c1ccc(Cl)cc1)c1ccc(Cl)cc1	–	inconclusive: 35.5 µM [inhibitor, single point]
Cc1cccc(OC(C)C(=O)Nc2nccs2)c1 (stereo not given)	inactive: -11.3%	–
O=C(c1ccccc1)c1ccc2nc(N3CCCCC3)c3nncn3c2c1	–	inconclusive: 17.8 µM [inhibitor, partial curve, poor fit]
COc1ccc(CSc2cccc3cccnc23)cc1[N+](=O)[O-]	–	inconclusive: 11.2 µM [inhibitor, partial curve, poor fit]
COc1ccc(NS(=O)(=O)c2cccc(C(=O)NCC(c3ccc(OC)cc3)N3CCOCC3)c2)cc1 (stereo not given)	–	inconclusive: 25.1 µM [inhibitor, single point]
COc1ccccc1NC(=O)CSc1nc2c(sc3ccccc32)c(=O)n1CCN(C)C	inactive: -10.2%	–
O=C(Nc1ccccc1F)Nc1cccc2ccc(O)cc12	–	inconclusive: 35.5 µM [inhibitor, single point]
CCC(C(=O)NC1CCCCC1)n1c(SCc2ccccc2F)nc2ccncc21 (stereo not given)	–	inconclusive: 17.8 µM [inhibitor, single point]
CN(C(=O)CSc1nncn1C)C1CCCN(Cc2ccccc2F)C1 (stereo not given)	inactive: -0.0555%	–
COc1cccc(/C=C(/C#N)c2ccc(F)cc2)c1OCc1cccc(C(=O)O)c1	inactive: -23.6%	–
C=C1C(=O)O[C@@H]2C[C@@H](C)[C@@H]3C=CC(=O)[C@@]3(C)[C@@H](OC(C)=O)[C@H]12	–	active: 0.708 µM
CNC(=O)COc1ccccc1C(=O)Nc1ccc2c(c1)oc1ccccc12	inactive: 2.56%	–
OC(c1ccc(Cl)c(F)c1)c1ncc(-c2cccc3ccccc23)[nH]1 (stereo not given)	–	inconclusive: 35.5 µM [inhibitor, single point]
CCC(C)NC(=O)CCCn1c(=O)c2cccn2c2ccccc21 (stereo not given)	inactive: -9.41%	–

SMILES	activity, negative = inhibition	Potency
CC1(C(=O)NCc2cccc3ccccc23)CCN1C(=O)C1(c2ccccc2)CCCC1 (stereo not given)	–	active: 12.6 µM
CC(C)c1ccc(NC(=O)C2(C)Cc3c(-c4ccc(N(C)C)cc4)ccnc3O2)cc1 (stereo not given)	inactive: -5.59%	–
CCC1=NN2C(=N)/C(=C\c3cccn3-c3cccc(Cl)c3)C(=O)N=C2S1	inactive: -7.21%	–
CCN(CC)CCNC(=O)c1ccc(NC(=O)c2ccc(Cl)c(S(=O)(=O)N3CCCCCC3)c2)cc1	–	inconclusive: 22.4 µM [inhibitor, single point]
CC[C@]12c3[nH]c4ccccc4c3CCN1C(=O)C(CC(=O)NC/C=C(\C)CCC=C(C)C)C[C@@H]2C(=O)N1CCN(C(=O)c2ccco2)CC1 (stereo not given in full)	–	inconclusive: 20 µM [inhibitor, single point]
COc1ccc(C(C(=O)NC2CCCC2)N(Cc2ccccc2)C(=O)c2nsc(Cl)c2Cl)cc1 (stereo not given)	–	inconclusive: 15.8 µM [inhibitor, single point]
COc1ccccc1CNc1nc(NCc2cccs2)nc2ccsc12	–	active: 11.2 µM
COc1ccccc1NC(=O)CSc1nc(C)c2c(c1C#N)CCCC2	inactive: -11.9%	–
Cc1cc(C(=O)OCC(N)=O)c(C)n1-c1ccccc1	inactive: -5.45%	–
COc1cc2sc(-c3ccccc3OC)c(-c3ccc(O)cc3)c2cc1OC	–	inconclusive: 15.8 µM [inhibitor, single point]
Cc1cccn2c(=O)nc(SCC(=O)N3N=C(c4cccs4)CC3c3ccc(F)cc3)nc12 (stereo not given)	–	inconclusive: 22.4 µM [inhibitor, single point]
CC(C)(C)c1cc(NC(=O)COC(=O)c2ccccc2O)n(-c2ccccc2)n1	–	inconclusive: 0.355 µM [inhibitor, partial curve, poor fit]
COc1cccc(C2C(C(=O)c3ccc(C)o3)=C(O)C(=O)N2c2cc(C)on2)c1 (stereo not given)	inactive: 4.87%	–
O=C(CN1CCN(Cc2ccc(F)cc2)C1=O)NCc1ccc(F)cc1	inactive: -4.83%	–
CC(C)CCOc1cccc(OCC(=O)NC2CCS(=O)(=O)C2)c1 (stereo not given)	–	inconclusive: 10 µM [inhibitor, single point]
C[C@@H](CN1C2=NC[C@H](Cc3ccccc3)N2C[C@H]1Cc1ccc(O)cc1)NC(=O)CCC1CCCCC1	–	inconclusive: 35.5 µM [inhibitor, single point]
CCc1ccc(NC(=S)NC2CCN(Cc3ccccc3)CC2)cc1	–	inconclusive: 35.5 µM [inhibitor, single point]
CCn1c(O)c(N=NC(=O)Cn2ccc(C(F)(F)F)n2)c2ccccc21	–	inconclusive: 35.5 µM [inhibitor, single point]
Cc1cnc(NC(=O)Nc2ccc(Cl)cc2)s1	–	inconclusive: 35.5 µM [inhibitor, single point]
c1csc(CNc2nc3ccccc3n2CCN2CCOCC2)c1	inactive: 0.956%	–
Cc1ccc(C(=O)OCC(=O)NCCc2ccccc2)cc1C	–	inconclusive: 22.4 µM [inhibitor, single point]
COC(=O)C1(C(F)(F)F)N=C(C(F)(F)F)Nc2ccc(Cl)cc21 (stereo not given)	–	inconclusive: 2.82 µM [inhibitor, full curve, poor fit]
